In the supplement of paper PMC4166925:
± gives the standard deviation of the averaged measurements. Over roughly 33,000 sequences, “E-score (dimensionless, -0.5 to 0.5)” has its median near -0.049; the highest 2% begin near 0.37. This is one part of the list.

The sequences below were run on T1, PmTbr T-box DNA-binding domain (GST fusion) (assay: PBM E-score of 8-mer (E-score (dimensionless, -0.5 to 0.5)); Tbr is Tbrain of the sea star Patiria miniata (Pm) or the sea urchin Strongylocentrotus purpuratus (Sp); higher = stronger binding preference; most listed sequences are background and not binding sites). Conditions: the construct has about 5 more residues each side.
T1 sequence: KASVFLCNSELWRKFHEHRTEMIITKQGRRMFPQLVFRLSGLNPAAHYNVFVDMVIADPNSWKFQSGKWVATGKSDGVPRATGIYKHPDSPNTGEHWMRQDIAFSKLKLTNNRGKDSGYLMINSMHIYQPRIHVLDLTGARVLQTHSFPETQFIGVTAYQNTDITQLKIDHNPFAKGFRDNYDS
Method in brief: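 Primer extension turned Universal Agilent oligonucleotide arrays double-stranded. They were incubated with 200 nM protein in PBS (pH 7.5); the protein was a GST-fused Tbr T-box DNA-binding domain expressed in BL21 E. coli at 20 °C and purified on glutathione. Every ungapped 8-mer was scored from the scanned, quantified probe intensities, and the Universal PBM Analysis Suite gave each an enrichment E-score averaged over duplicate arrays.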

Sequence	PBM E-score of 8-mer
AGACTTTG	-0.00767 ± 0.055
AGGGGGGG	-0.254 ± 0.013
AATTTTGA	-0.152 ± 0.0084
GATCAGTA	-0.214 ± 0.022
CCAAGGAA	-0.24 ± 0.073
AAAGTGTC	0.4215 ± 0.0027
ACTATGGA	-0.246 ± 0.02
CCCGTCGA	-0.016 ± 0.0077
GATAAAAA	0.105 ± 0.14
ATATACTG	-0.178 ± 0.023
ATTTTTTC	-0.128 ± 0.13
AGGCAAGC	-0.0192 ± 0.0055
CGAGATTC	0.0814 ± 0.0071
CATGATAC	-0.107 ± 0.045
CGTCCCTA	-0.0903 ± 0.03
CTGGCTGC	-0.078 ± 0.025
CCAAGTAG	-0.0237 ± 0.021
CCTGGTCG	0.00532 ± 0.059
CTTTTGCC	-0.00579 ± 0.051
GGACAGCA	-0.126 ± 0.077
GAGACCCC	-0.14 ± 0.034
ATTTCCTG	0.0623 ± 0.0096
CGAATGAA	-0.0823 ± 0.076
GATATAAA	-0.127 ± 0.017
ACGGCAAC	0.0535 ± 0.1

Sequence	PBM E-score of 8-mer
GATTATGC	-0.19 ± 0.0085
AAGAACCT	-0.12 ± 0.06
CCCGAGCG	-0.122 ± 0.12
CCTAATGA	-0.231 ± 0.03
ACTATTGG	0.107 ± 0.044
CTATGTCA	0.116 ± 0.015
CGTTGAGA	0.0458 ± 0.03
AGGCTTTC	0.0312 ± 0.02
ACAACTTG	0.295 ± 0.043
ACACCACA	0.377 ± 0.008
ACCCTTGC	0.0156 ± 0.051
GTAATTAA	-0.125 ± 0.12
GGTATCTA	-0.354 ± 0.0049
CTAACGTA	-0.0997 ± 0.014
AGAGTGAC	0.19 ± 0.023
TCATATGA	-0.186 ± 0.13
ACGCTCTC	0.0529 ± 0.013
GGAAACGA	0.00114 ± 0.1
AAGCAGCC	-0.0997 ± 0.03
AGAATTAA	-0.201 ± 0.015
AATGCCAT	-0.136 ± 0.014
AACCGGTT	0.0785 ± 0.12
TCCGCCGA	-0.0905 ± 0.04
CAGGTCAG	-0.093 ± 0.034
GCAGGTCA	0.103 ± 0.027

Sequence	PBM E-score of 8-mer
AACCGGGT	-0.132 ± 0.027
ACACAGAA	-0.178 ± 0.04
TATCCAGA	-0.357 ± 0.018
CCGGGCCG	-0.2697 ± 0.0024
AACAGAAC	-0.148 ± 0.12
CACCTTAC	0.394 ± 0.0074
AGGCTCTG	-0.0891 ± 0.012
TAGAAGGA	-0.241 ± 0.062
ACACATGA	0.214 ± 0.043
ATAGCGTG	0.148 ± 0.029
ATTGATTC	-0.0692 ± 0.092
TCAACTGA	0.0715 ± 0.01
AAATGGTG	0.075 ± 0.0028
AGGATAGC	-0.217 ± 0.034
ACCGTCTG	-0.0903 ± 0.044
ATAGGTGC	0.414 ± 0.0057
TCGTAGAA	-0.271 ± 0.018
CATTACAG	-0.113 ± 0.059
AGGCATAG	-0.243 ± 0.032
CCCCGGCA	-0.152 ± 0.025
CGAGATAA	-0.023 ± 0.048
CGGGTTAA	-0.0931 ± 0.03
CGCCATCA	0.148 ± 0.047
GGGGTGTA	0.175 ± 0.0049
AGCACCTA	0.435 ± 0.00088

Sequence	PBM E-score of 8-mer
CATGACGG	0.0229 ± 0.11
ACTGTATC	-0.207 ± 0.022
AACGCACC	0.0687 ± 0.032
ATACAGTC	-0.149 ± 0.035
AAAAGGGG	-0.0705 ± 0.051
GGAAATAA	0.0367 ± 0.013
ATCTTCGC	0.2 ± 0.02
ATGGAATG	-0.2435 ± 0.0015
CAGGCTAA	-0.242 ± 0.019
CGAAAACA	0.117 ± 0.031
GTTACCTA	0.00641 ± 0.065
AGATCCGA	-0.221 ± 0.013
ATTTCCGC	-0.0197 ± 0.0077
CGAGAGCA	-0.0175 ± 0.0036
AACCGGTC	-0.168 ± 0.018
CTTGAAAA	-0.0559 ± 0.0075
AATTTCCC	0.0027 ± 0.073
AGACCGGA	-0.197 ± 0.075
ATCCCCTA	-0.219 ± 0.078
CGCGCCCG	0.236 ± 0.069
ACGCTCAA	0.00488 ± 0.053
AGCACAAG	-0.161 ± 0.021
AAGCCTGT	-0.0372 ± 0.058
CGACTGTC	0.0491 ± 0.14
CGCCGCAC	0.289 ± 0.038

Sequence	PBM E-score of 8-mer
CGCAAATC	0.155 ± 0.018
CTGCCACA	0.226 ± 0.014
GCGAGCAA	0.0445 ± 0.074
CTCTAAAC	-0.0367 ± 0.027
AACTCTAA	-0.234 ± 0.037
GGATGATA	-0.074 ± 0.044
CTGGCCAG	-0.16 ± 0.073
ACGAGATG	0.0399 ± 0.024
GCGTAAAA	0.0638 ± 0.066
ATGCGATG	-0.0215 ± 0.034
GCTCTCTA	-0.176 ± 0.03
CGTTGAAA	0.0196 ± 0.027
CTTTTAGC	0.22 ± 0.074
TCACCAAA	0.177 ± 0.043
CCACTGAA	-0.221 ± 0.016
CATTAGCC	-0.12 ± 0.059
AGCCGACC	-0.193 ± 0.028
AGAGGGAA	-0.213 ± 0.03
CCGCAACC	-0.182 ± 0.03
AATCGTTG	-0.0951 ± 0.017
CGGCAGAG	0.00638 ± 0.076
AAGTCATG	0.017 ± 0.0099
ACACATTC	0.387 ± 0.016
CACTGAGA	-0.158 ± 0.085
AAATGAGA	-0.202 ± 0.11

Sequence	PBM E-score of 8-mer
GCGGACGA	-0.00532 ± 0.044
ACCTGAAG	-0.0171 ± 0.064
AGCGCGTA	0.2079 ± 0.00075
AAATAGGT	0.0404 ± 0.07
AGTAAACT	-0.108 ± 0.023
ATCCCGAA	-0.0919 ± 0.037
TAAATTGA	0.00543 ± 0.037
AGAGCATG	-0.214 ± 0.092
AATGTTCT	-0.239 ± 0.056
GTAGTCTA	-0.207 ± 0.03
CTACTAAG	-0.196 ± 0.044
TGCATACA	-0.329 ± 0.054
CGGTACTA	-0.19 ± 0.068
AAGCCACT	0.000585 ± 0.037
ACCCCTCC	0.0689 ± 0.018
ACGAGACT	-0.147 ± 0.073
CTAGCAAA	0.113 ± 0.039
AAGGAGAT	-0.142 ± 0.059
CCGCAGGC	0.000335 ± 0.0022
CATTCGAC	-0.0169 ± 0.0046
ACCCTACA	0.024 ± 0.052
AAGCAGAA	-0.00243 ± 0.12
AATTGGGC	-0.184 ± 0.03
CCTAGTGC	0.113 ± 0.021
GAAAGCTA	-0.00503 ± 0.012

Sequence	PBM E-score of 8-mer
AGACAGTA	-0.0399 ± 0.045
AGGGGTAG	-0.085 ± 0.024
GATTTTCA	-0.0598 ± 0.093
AACGTCTG	-0.247 ± 0.0067
AATATCAT	-0.136 ± 0.089
ACTCAACT	-0.0871 ± 0.011
TCCACAAA	0.0815 ± 0.0024
AATCCTAA	-0.211 ± 0.041
ACGATTTA	0.0453 ± 0.00064
GGAATCCA	-0.221 ± 0.047
GGTAACGA	0.0174 ± 0.026
ACGTATGA	-0.00267 ± 0.0085
CTACGGCC	-0.271 ± 0.072
TGAATGCA	-0.205 ± 0.0086
CGTTCCCC	-0.0259 ± 0.031
CGGGGCAC	-0.163 ± 0.0096
CCGGAATC	-0.159 ± 0.0056
CACCCACA	0.322 ± 0.02
CCACGGGA	-0.177 ± 0.043
GATTATCC	-0.0623 ± 0.022
AGGTACAC	-0.258 ± 0.033
TAGACCCA	-0.208 ± 0.061
